Here are results for five substances from publication PMC12843386, “Ly6/uPAR Protein from Asterias rubens Starfish Stimulates Migration and Invasion of Human Epithelial and Immune Cells” (Marine Drugs, 2025).

Amino acid sequences for entries named in this document (tags omitted). A change or cut given only in a name is not applied to a line headed by its entry. Residues count along the entry.
UniProt P32297, residues 32-505: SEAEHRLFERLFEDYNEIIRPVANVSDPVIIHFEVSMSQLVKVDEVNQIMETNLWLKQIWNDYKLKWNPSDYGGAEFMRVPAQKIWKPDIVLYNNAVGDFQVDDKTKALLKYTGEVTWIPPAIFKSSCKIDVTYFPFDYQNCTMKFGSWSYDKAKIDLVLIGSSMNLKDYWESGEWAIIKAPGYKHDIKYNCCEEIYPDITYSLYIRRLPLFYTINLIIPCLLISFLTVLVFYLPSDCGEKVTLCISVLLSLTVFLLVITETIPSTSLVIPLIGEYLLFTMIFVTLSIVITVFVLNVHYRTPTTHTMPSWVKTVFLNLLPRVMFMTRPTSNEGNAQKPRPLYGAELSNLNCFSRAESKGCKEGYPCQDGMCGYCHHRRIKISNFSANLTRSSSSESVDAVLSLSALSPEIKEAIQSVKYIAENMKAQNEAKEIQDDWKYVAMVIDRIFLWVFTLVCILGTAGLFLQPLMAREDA
UniProt P43681, residues 27-627: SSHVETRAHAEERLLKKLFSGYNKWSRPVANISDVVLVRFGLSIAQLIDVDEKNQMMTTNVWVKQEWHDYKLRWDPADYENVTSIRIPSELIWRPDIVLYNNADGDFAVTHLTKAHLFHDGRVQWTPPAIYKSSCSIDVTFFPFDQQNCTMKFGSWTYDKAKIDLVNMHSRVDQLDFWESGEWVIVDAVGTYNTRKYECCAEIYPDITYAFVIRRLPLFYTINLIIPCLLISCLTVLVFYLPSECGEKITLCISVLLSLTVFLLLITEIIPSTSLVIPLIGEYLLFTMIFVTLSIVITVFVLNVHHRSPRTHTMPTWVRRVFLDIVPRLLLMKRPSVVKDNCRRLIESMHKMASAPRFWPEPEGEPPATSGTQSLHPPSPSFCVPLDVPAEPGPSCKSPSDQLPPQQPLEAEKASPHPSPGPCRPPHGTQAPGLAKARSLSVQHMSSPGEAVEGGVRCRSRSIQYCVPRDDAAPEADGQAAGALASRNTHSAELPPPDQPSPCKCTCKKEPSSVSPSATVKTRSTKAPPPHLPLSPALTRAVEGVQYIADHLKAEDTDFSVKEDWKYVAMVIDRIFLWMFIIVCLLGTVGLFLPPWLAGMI
UniProt P17787, residues 26-502: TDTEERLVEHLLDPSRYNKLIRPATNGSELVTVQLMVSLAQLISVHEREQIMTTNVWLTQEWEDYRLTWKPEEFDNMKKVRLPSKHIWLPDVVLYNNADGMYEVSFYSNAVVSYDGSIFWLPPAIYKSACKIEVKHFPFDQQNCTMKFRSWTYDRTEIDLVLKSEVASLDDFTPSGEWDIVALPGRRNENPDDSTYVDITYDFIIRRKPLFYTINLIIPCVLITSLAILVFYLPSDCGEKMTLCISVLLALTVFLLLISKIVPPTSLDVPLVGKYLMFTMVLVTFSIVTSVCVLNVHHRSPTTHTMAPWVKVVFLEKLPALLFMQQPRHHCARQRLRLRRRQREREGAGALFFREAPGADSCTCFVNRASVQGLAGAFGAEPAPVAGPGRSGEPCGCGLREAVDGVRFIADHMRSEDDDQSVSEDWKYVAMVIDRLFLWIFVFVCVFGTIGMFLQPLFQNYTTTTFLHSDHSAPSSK
UniProt P36544, residues 23-502: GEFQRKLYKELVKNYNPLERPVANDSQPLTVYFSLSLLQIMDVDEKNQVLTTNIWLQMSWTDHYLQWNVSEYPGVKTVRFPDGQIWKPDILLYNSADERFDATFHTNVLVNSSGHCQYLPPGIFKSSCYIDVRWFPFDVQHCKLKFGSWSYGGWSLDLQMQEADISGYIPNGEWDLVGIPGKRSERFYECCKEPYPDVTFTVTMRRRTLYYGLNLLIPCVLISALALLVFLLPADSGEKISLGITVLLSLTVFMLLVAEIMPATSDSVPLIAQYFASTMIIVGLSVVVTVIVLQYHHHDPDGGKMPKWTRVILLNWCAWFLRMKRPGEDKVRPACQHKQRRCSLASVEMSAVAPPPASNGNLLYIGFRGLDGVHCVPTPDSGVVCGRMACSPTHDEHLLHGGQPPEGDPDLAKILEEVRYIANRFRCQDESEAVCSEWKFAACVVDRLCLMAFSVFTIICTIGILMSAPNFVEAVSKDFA
UniProt P05556: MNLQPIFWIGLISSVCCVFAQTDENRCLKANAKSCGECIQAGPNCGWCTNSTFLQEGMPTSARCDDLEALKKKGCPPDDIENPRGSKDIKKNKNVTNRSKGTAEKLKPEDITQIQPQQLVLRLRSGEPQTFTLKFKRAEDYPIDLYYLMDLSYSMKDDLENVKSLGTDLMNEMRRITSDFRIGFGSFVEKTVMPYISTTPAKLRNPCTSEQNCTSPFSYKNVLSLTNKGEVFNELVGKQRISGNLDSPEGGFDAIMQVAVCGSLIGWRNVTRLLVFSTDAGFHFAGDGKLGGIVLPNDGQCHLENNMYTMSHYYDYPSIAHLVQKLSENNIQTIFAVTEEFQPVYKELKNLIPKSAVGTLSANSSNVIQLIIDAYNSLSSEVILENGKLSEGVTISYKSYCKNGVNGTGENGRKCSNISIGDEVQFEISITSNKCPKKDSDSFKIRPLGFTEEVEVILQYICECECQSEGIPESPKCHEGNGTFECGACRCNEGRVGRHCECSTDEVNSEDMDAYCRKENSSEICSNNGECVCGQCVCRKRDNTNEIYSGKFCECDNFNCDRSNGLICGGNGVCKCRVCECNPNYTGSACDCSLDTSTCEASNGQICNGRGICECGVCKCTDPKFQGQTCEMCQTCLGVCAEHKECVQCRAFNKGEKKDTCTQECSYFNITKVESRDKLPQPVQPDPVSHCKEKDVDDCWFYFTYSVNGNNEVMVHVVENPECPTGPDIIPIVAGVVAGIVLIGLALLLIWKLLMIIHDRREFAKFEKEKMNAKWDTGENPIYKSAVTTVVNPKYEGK

Assay [1] addresses T1, peptide mimicking loop II of Lystar5 (Asterias rubens).
T1 sequence (peptide, C-terminal amide): GCQVIYSTERGKLRIDCG
The assay can be described thus: pull-down; affinity extraction: Lystar5 or loop I or II (1 mg/mL) coupled to NHS Flexibind magnetic beads, incubated 1 h in TBS with the pre-cleared membrane fraction of PBMCs; washes with TBS, TBS + 1 M NaCl + 0.5% Triton X-100, TBS + 0.5% Triton X-100; Western blotting; only the target purified. A general note: A western blot detects proteins with antibodies after separation by electrophoresis.

Assay [2] has the same target. The experiment in a line: pull-down; affinity extraction: Lystar5 or loop I or II (1 mg/mL) coupled to NHS Flexibind magnetic beads, incubated 1 h in TBS with the pre-cleared membrane fraction of HaCaT keratinocytes; washes with TBS, TBS + 1 M NaCl + 0.5% Triton X-100, TBS + 0.5% Triton X-100; Western blotting; only the target ….
Assay [3] has as its target T2, peptide mimicking loop I of Lystar5 (Asterias rubens).
T2 sequence (peptide, C-terminal amide): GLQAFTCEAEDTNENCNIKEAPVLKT
The assay is described as above.

Assay [4] deals with α3 nAChR subunit (human (endogenous in HaCaT keratinocytes and PBMCs)) (UniProt P32297). The assay can be described thus: ELISA; antibodies to α3, α4, α7 or β2 nAChR subunits immobilised in ELISA wells, incubated 2 h with the membrane fraction of HaCaT cells; bound integrin subunits detected by anti-integrin antibodies (the methods call it immunoprecipitation). A general note: An ELISA detects its analyte on a solid surface through an enzyme-linked reagent.

Assay [5] concerns the target α4 nAChR subunit (human (endogenous in HaCaT keratinocytes and PBMCs)) (UniProt P43681). Described as above.

Results are given in words; binding and its absence hold for the method and conditions named. For some assays here: In cells and extracts the contact can be indirect. Some binding calls cover weakened binding; strength is not graded here.

On to “β2 nAChR subunit (from UniProt P17787 26-502) (receptor)”, for which the binding result in assay [1], in assay [2] and in assay [3] was “binds” each time.
On to “α4 nAChR subunit (from UniProt P43681 27-627) (receptor)”, for which the binding result in assay [1], in assay [2] and in assay [3] was “binds” throughout.
Turning to “α7 nAChR subunit (from UniProt P36544 23-502) (receptor)”, the binding result in assay [1], in assay [2] and in assay [3] was “no binding” each time.
For “α3 nAChR subunit (from UniProt P32297 32-505) (receptor)”, the binding result in assay [1], in assay [2] and in assay [3] was “binds” in each case.
Consider “β1 integrin subunit (from UniProt P05556 21-798) (receptor)”, for which the binding entry is listed as “binds” in assay [1]; “no binding” in assay [4]; “binds” in assay [5]; “binds” in assay [2]; “binds” in assay [3].
